Experimental findings from article PMC12136788 are described below.

The list shows a part of the results.

The chains are these.
B1: chr6:65046092:65046093:+_ENSMUSG00000029920_ENSMUST00000031984|mus_hu|FALSE|FALSE (ssRNA)
RNA: GGGAGUUCUACAGUCCGACGAUCAAGGUGCUGGUAGCGAAUGGAGCCCAUAUUCUUCAGCAUAUGGCCCUCAUCAAAAAUUGCGUAAUUAAGUUUCAGCCGUCGAAACAGACUACGGUCAUCAGAACUGCUGAUCGCACAGUUCAACAGAGGAUUGAGCAUCA
B2: chr11:46405157:46405158:+_ENSG00000110492_ENST00000395566|hu_hu|hu_hu_hu_mus_False|8_18 (ssRNA)
RNA: GGGAGUUCUACAGUCCGACGAUCCCCUCCCCACUUUGGGCACUUGGUGUGGGCGUGAGAGGACAGGCGUGAUUGACAGAGCUGACAGGAAGACAAAAGGCACUGGUGGGUUAUAUCUCGGGCCUGGGAGAGGGAGGGGCUCCGCAACAGAGGAUUGAGCAUCA
B3: chr1:130485734:130485735:-_ENSMUSG00000045382_ENSMUST00000052172|mus_mus|mus_mus_mus_hu_False|88_88 (ssRNA)
RNA: GGGAGUUCUACAGUCCGACGAUCGAUGAAGGAGUCGAUGCUGAUCCCCACAUAAUAAGGCAGCCAACAGGCGAAGAAAGCCAGGAUGAGGAUGACUGUGGUCUUGAGGGCCUUGCGCUUCUGGUGGCCCUUGGAGUGUGACAGCAACAGAGGAUUGAGCAUCA
B4: 52312331_52312451_268_5pUTR_ENSG00000164091_ENST00000296490|human|control|control (ssRNA)
RNA: GGGAGUUCUACAGUCCGACGAUCCCUUAGCGACGCGGAAGCUCCGCAACACGCUGUCGGUCAGCUUCAUGGCGGCGGCUGGGGAAGGCAGCGGCGGCGCAGGGCCGGGGCGGGGCCCGGCGGCGAGCGGGCGGGCUGCCGAGGCAACAGAGGAUUGAGCAUCA
B5: chr2:198351390:198351391:-_ENSG00000144381_ENST00000345042|hu_hu|hu_hu_hu_mus_False|8_88 (ssRNA)
RNA: GGGAGUUCUACAGUCCGACGAUCUCAUUCCCACCCUCCACAGAAAGGCUGCUUAACAACUCUCAUGUGGUGACACAGCGCUACAGUCCUGAUGCUCACAGAACAGUAGAGAUGCCUCAGUGAUUUAUUAAGUUGAAAGGACACCAACAGAGGAUUGAGCAUCA
B6: chr2:55199926:55199927:-_ENSG00000115310_ENST00000317610|hu_mus|FALSE|FALSE (ssRNA)
RNA: GGGAGUUCUACAGUCCGACGAUCCAUUUCAGAAAAAUCUGCAUCAGUUUUACACCAACCAAACACAGUACACUGUGAAAAGGGUUGUUUUUCCUGCCCCCAAAUCUACCUUCUUUGCAACUUUCCAAAUACAGCCAGACUACCCAACAGAGGAUUGAGCAUCA
B7: chr11:115359251:115359252:-_ENSMUSG00000020737_ENSMUST00000021083|mus_hu|motif|central (ssRNA)
RNA: GGGAGUUCUACAGUCCGACGAUCUAUUUCUUCUUAAAAACACAGUACUAAGUGUCACAAAGCUUUCCCUCCAAUCGGCGGCGGGAAAACACUCAUGCCAUGGCCCACAGACCCAAGAGUCAAGGACAGAGAGAAACCUGUUCUCAACAGAGGAUUGAGCAUCA
B8: chr1:244870462:244870463:+_ENSG00000121644_ENST00000302550|hu_hu|FALSE|FALSE (ssRNA)
RNA: GGGAGUUCUACAGUCCGACGAUCAUAGCAAACAAUCCAAUCUAAAAGUUUAAAUAAAUGUCAAUAAUUUUAAAACUAACUAUAUUUUAUAUGUAUAUAAAGCUGAAGUCACUGCCUUGGAUAGUGUUACACUGCAUCCAAUAUCAACAGAGGAUUGAGCAUCA
B9: chr5:31552970:31552971:+_ENSG00000082213_ENST00000325366|hu_hu|motif|central (ssRNA)
RNA: GGGAGUUCUACAGUCCGACGAUCCAUGUACAAAUAAGUUAAUUAAGGGCCUGUUACUAAACCAAGAUACAACAGGAGCCGGAUGUUUUGUUUGUUUCAAGAUGGAGGAGACUCUGCUGCAUACACUUGGAGGUCUAGAUUUCCCAACAGAGGAUUGAGCAUCA
B10: chr5:128440902:128440903:+_ENSG00000066583_ENST00000173527|hu_mus|hu_hu_hu_mus_True|48_98 (ssRNA)
RNA: GGGAGUUCUACAGUCCGACGAUCUUGAACGGUGCUGCCAAGACCUUUGGGGUAUUGUUCCGUUAUGAUAACUGGAAUCCCUAAGAUCCGGGCCCCUUGCAACAGUCUCUGUCCCACACUAAUGAUGUCCCCAAAGUAUUUGAUCAACAGAGGAUUGAGCAUCA
B11: chr2:32989838:32989839:-_ENSMUSG00000038831_ENSMUST00000042615|mus_hu|motif|central (ssRNA)
RNA: GGGAGUUCUACAGUCCGACGAUCUGUUGAGCCUUUUGAUGCCUUUCUAGAGGAAUCUAUGCACAGGAUUUAUACUCAGGACGGGGAGAGAGGCAAAGUCUUGCCUAAGGAGAUAGGUGUGGUGGGGACUGUUUGUUGAGUGGUCAACAGAGGAUUGAGCAUCA
B12: chr22:19442333:19442334:-_ENSG00000070010_ENST00000399523|hu_mus|FALSE|FALSE (ssRNA)
RNA: GGGAGUUCUACAGUCCGACGAUCAACCUUUUUGACCAAUGGACGUGAAUUUCUGAUGAAAGUGAUCUUACCAAGCUUAAAUUCGUAAUUAGGAAUUCCUCUUUUGAUGUCUCCAGGCUUGAUUGGGGAGGGACUGGGCUCAACCAACAGAGGAUUGAGCAUCA
B13: 54837271_54837391_707_CDS_ENSG00000102316_ENST00000375058|human|control|control (ssRNA)
RNA: GGGAGUUCUACAGUCCGACGAUCCCAAAAGGCUAUGGGACCCCUUGAAGCCCUGCGGGCCAUUGAGGCCAUUAGGGCCUUUGAGACCCUUCGGCCACCUGUGGUUCCAGAAGCCUGACUCUGAUCACUGCUGCCAUCCUCUUCCAACAGAGGAUUGAGCAUCA
B14: chr18:5290039:5290040:-_ENSG00000198081_ENST00000357006|hu_mus|FALSE|FALSE (ssRNA)
RNA: GGGAGUUCUACAGUCCGACGAUCGUCACGAUUUCAAGACCUAGGGGUUUUUUGUAUCUGUGAAAACCUUGUGUCAGACUCUUCUCCUGUCGAUGCUGGUCCAUUGCACGGACACACACAGACAGCAUGGCCACACUGAAUGAACAACAGAGGAUUGAGCAUCA

The experiment has as its target T1, UNK ZnF1-3 (human, UniProt Q9C0B0 31-174).
T1 sequence: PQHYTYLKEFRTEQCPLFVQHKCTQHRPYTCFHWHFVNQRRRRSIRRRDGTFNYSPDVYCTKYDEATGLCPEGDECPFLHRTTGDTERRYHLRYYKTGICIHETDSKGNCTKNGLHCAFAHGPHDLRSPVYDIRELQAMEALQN
The experiment in a line: nsRBNS (natural sequence RNA bind-n-seq); RBNS binding buffer (assumed for nsRBNS): 25 mM Tris pH 7.5, 150 mM KCl, 3 mM MgCl2, 0.01% Triton X-100, 500 ug/ml BSA, 20 U/ml SUPERase-In, 4 C; UNK is unkempt and MSI1 is Musashi-1; names of the RNAs are library labels; protein concentration not given here; high values mean tight binding.
In turn, B1 registered a binding signal of 0.599 enrichment R.

B2 yielded a binding signal of 3.08 enrichment R.

Molecule B3 gave a binding signal of 1.22 enrichment R.

For B4, the binding signal came to 0.587 enrichment R.

On to B5, for which the binding signal amounted to 1.27 enrichment R.

For the molecule B6, the binding signal came out at 1.34 enrichment R.

With B7, the binding signal came to 0.738 enrichment R.

In turn, B8 showed a binding signal of 2.37 enrichment R.

The molecule B9 displayed a binding signal of 1.61 enrichment R.

As for B10, the binding signal was determined as 0.639 enrichment R.

With B11, the binding signal was found to be 1.2 enrichment R.

B12: the binding signal amounted to 1.36 enrichment R.

In turn, B13 returned a binding signal of 0.729 enrichment R.

The molecule B14 registered a binding signal of 0.718 enrichment R.
